Results as given in the supplement of paper PMC10126150.
Sequences with one replicate were seen in a single cluster, so their values are uncertain.

System: ATP
Assay: switch fluorescence ratio, 500 uM ATP over buffer (Cy3 cluster intensity, sum of 5 cycles each) (fold (ratio)); higher = stronger signal-on switching upon ATP binding; sequences stand for … in TCGTCGGCAGCGTCAGATGTGTATAAGAGACAGTTTTTTTTTTTTTTTTTTTTTTTTT…TC
Conditions: aptamer strand: ATP DNA aptamer (quencher-CACCTGGGGGAGTATTGCGGAGGAAGG + anchor), 100 nM annealed; ATP concentration: 500 uM; one replicate
Outline: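 Values give the fluorescence ratio for each switch-domain sequence, averaged from per-cluster ratios of summed target-cycle to summed buffer-cycle Cy3 intensity. The Cy3-labelled switching-strand clusters sat on a modified Illumina MiSeq flow-cell, were annealed to 100 nM quencher-labelled ATP aptamer, and were imaged in selection buffer, then after 15 min with 500 uM ATP at 22 °C. Five cycles ran with NaOH stripping and re-annealing between them, and clusters outside 100-1000 RFU were excluded.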
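Also: ATP exposure 15 min at 22 °C before imaging.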

Sequence	switch fluorescence ratio
AAAAAAAAAG	0.969
AAAAAATGGT	0.971
AAAAACCTGG	1.23
AAAAACCTGT	1.05
AAAAACGAGC	1.11
AAAAACTCAA	1.07
AAAAAGAATC	1.08
AAAAAGAGGT	0.964
AAAAAGTTTC	0.981
AAAAATAAGG	0.986
AAAAATCCAT	1
AAAAATTAGC	0.95
AAAAATTT	1.01
AAAACAATT	1.02
AAAACCACCA	1.05
AAAACCATTA	1.03
AAAACGATTG	1.06
AAAACGTAG	1.01
AAAACTAATT	1.04
AAAACTAGCA	1.02
AAAACTCCTG	1.05
AAAAGAAACA	1.14
AAAAGATACT	1.06
AAAAGCAAGG	0.986
AAAAGCAGCA	1.04
AAAAGGAGCA	1.01

Sequence	switch fluorescence ratio
AAAAGGCCGC	0.99
AAAAGGGACA	1
AAAAGTACAA	1.13
AAAAGTCCTC	1.07
AAAAGTCG	1.09
AAAAGTCGTA	0.982
AAAAGTTATA	1.03
AAAATAAAGC	0.97
AAAATACCCG	1.07
AAAATATATA	1.04
AAAATCCTTC	1.37
AAAATCGGGG	0.996
AAAATCTTGC	1.23
AAAATGAACT	1.03
AAAATGAGAT	0.98
AAAATGCCGA	1.03
AAAATGGACG	1.11
AAAATGGATC	1.07
AAAATGGTAG	1
AAAATGTATG	0.992
AAAATGTCGC	1.07
AAAATTATTA	1.03
AAAATTCTT	0.987
AAACAAGAGT	0.983
AAACACACCT	1.37
AAACAGGTGT	1.92

Sequence	switch fluorescence ratio
AAACAGTCTT	1.01
AAACATTCCG	1.9
AAACATTTCC	1.29
AAACCAAGAA	0.974
AAACCGATAT	1.04
AAACCGGTTA	0.993
AAACCGTGGG	0.984
AAACGAAAAC	0.947
AAACGAATG	1.01
AAACGAGAAG	1.05
AAACGAGATT	0.998
AAACGCGGGG	1.21
AAACGGAAGC	1.05
AAACGGATCG	1.08
AAACGGCG	0.994
AAACGGGCCA	0.986
AAACGTATTT	1.05
AAACTAGAAT	1.02
AAACTAGGCC	1.01
AAACTCAGAG	0.961
AAACTCAGGC	1.18
AAACTCGGAA	1.06
AAACTGATGT	0.986
AAACTGGGCC	0.984
AAACTGTTCG	1.06
AAAGAAAACA	0.984

Sequence	switch fluorescence ratio
AAAGAAAACC	1.24
AAAGAAGCTG	1.04
AAAGAAGGAC	2.81
AAAGACGTTG	0.996
AAAGACTCCG	0.98
AAAGAGCCAA	1.07
AAAGAGGGAG	0.927
AAAGAGGTAA	0.973
AAAGAGTGCT	0.976
AAAGATAGTC	0.941
AAAGATTTT	1.11
AAAGCAAAGC	1.07
AAAGCACAGT	1.08
AAAGCAGCAC	1.61
AAAGCCTGAG	1.28
AAAGCGGGGT	1
AAAGCTATTG	0.988
AAAGCTCAA	0.997
AAAGGAAAGA	1.08
AAAGGAAGAC	1.14
AAAGGGATT	0.994
AAAGGGCCG	1.06
AAAGGGGCGA	1.17
AAAGGGTCCC	0.979
AAAGGTAAAT	1.03
AAAGGTCCCC	0.999

Sequence	switch fluorescence ratio
AAAGGTGTTC	1.2
AAAGGTTATA	0.975
AAAGGTTATT	1.01
AAAGTACTAT	1.19
AAAGTATCAA	0.964
AAAGTATCGG	1.01
AAAGTCAGTT	1.01
AAAGTCGACG	1.04
AAAGTGCACG	1.03
AAAGTTGTGA	0.991
AAATAAATTA	1.06
AAATAATCC	1.07
AAATACGTTG	1.03
AAATAGCTGG	0.973
AAATAGGGG	0.985
AAATAGTATA	0.994
AAATAGTTAT	0.98
AAATATCAAA	0.998
AAATATTCAT	0.96
AAATCAAGAT	1.01
AAATCATTGA	0.992
AAATCGCACG	1.1
AAATCTATTT	0.969
AAATCTGACC	1.21
AAATCTTGCG	1.06
AAATGACA	0.986

Sequence	switch fluorescence ratio
AAATGACTCG	1.03
AAATGGACGA	1.06
AAATGGCACT	1.05
AAATGGCGCT	0.987
AAATGGTAGT	0.979
AAATGGTCC	1.01
AAATGGTTAC	1.03
AAATGTGTTC	1.02
AAATGTTGG	0.982
AAATGTTGTG	0.978
AAATTATATC	1.01
AAATTATGAG	0.946
AAATTATGAT	1.05
AAATTGAACA	1.26
AAATTGCGC	1.05
AAATTGTAGA	1
AAATTGTCGG	0.982
AAATTGTGT	0.969
AAATTTAAGA	0.986
AAATTTACGC	1.09
AAATTTGATA	1.03
AAATTTTGAT	0.997
AACAAAATTA	0.999
AACAAAGA	0.985
AACAAGAACG	1.06
AACAAGCTTG	0.984

Sequence	switch fluorescence ratio
AACAAGTTCT	0.982
AACAATAATC	1.06
AACAATACTG	1.26
AACAATTATC	1.03
AACACAATCA	1.03
AACACCACAG	1.3
AACACCAGCG	1.16
AACACCCTTT	1.07
AACACCGGCC	1.57
AACAGACCGT	1.04
AACAGAGAGC	1.04
AACAGATGAT	1.03
AACAGCGGAC	1.27
AACAGCTCTT	1.05
AACAGGATGT	0.978
AACAGGCAGG	1.09
AACAGGTCGC	1.01
AACAGGTGTA	1.63
AACAGTAACT	1.08
AACAGTTAGA	1.03
AACATCCTGT	0.982
AACATCGAGG	1.04
AACATTGCTC	1.26
AACATTTAGG	1.03
AACATTTCAG	0.988
AACCAAACCG	1.16

Sequence	switch fluorescence ratio
AACCAACCAT	1.08
AACCAATGAT	0.992
AACCACTTCT	1.03
AACCAGATGA	1.06
AACCATCGAC	1.12
AACCCACTAC	1.46
AACCCGGAAA	1.01
AACCCTGGTT	1.06
AACCGAAAA	1.05
AACCGAATTC	1.08
AACCGATCCC	1.41
AACCGGCCAT	1.03
AACCGGTTCT	0.98
AACCGTGCTT	1.07
AACCTATATT	0.977
AACCTCACTT	1.16
AACCTCGGGT	1.01
AACCTGCTTG	0.997
AACCTGGTAG	1.06
